Measured values taken from article PMC12136788.
The other results are listed elsewhere or left out.

B1: chr11:63961690:63961691:+_ENSG00000168439_ENST00000305218|hu_hu|motif|central (ssRNA)
RNA: GGGAGUUCUACAGUCCGACGAUCCUCGUGUUUUAAGCCCUCCUCAUAGGUUCGCUUGGCUUCUUCAAAGCGGUUUAAGAACUCGGGAGCUGCUGCUUUUCGUGAAUAGCCCUUGCCCCAGUCAGGCUUUAGGUCGACAGUCUUCAACAGAGGAUUGAGCAUCA
B2: chr3:107877451:107877452:-_ENSMUSG00000027889_ENSMUST00000078912|mus_mus|FALSE|FALSE (ssRNA)
RNA: GGGAGUUCUACAGUCCGACGAUCGCAGCCAGUGCCACAGCAGAGAGAUAACGAGCCCCUCCUGUCCCACAGCCACAUAAACAAGAGGGAAACUCAACUUGAACUCUAACCAAAGCCUGGGUUCCCGGUGCUCAAGGGGCCAGCCAACAGAGGAUUGAGCAUCA
B3: chr1:58468927:58468928:-_ENSMUSG00000026034_ENSMUST00000148330|mus_mus|mus_mus_mus_hu_False|58_88 (ssRNA)
RNA: GGGAGUUCUACAGUCCGACGAUCAAUUACUGAAAAAGAUGUUCAUUUAUUUGGUUUUGUACUUAAUGAACCAAAUUAUCUAAAAAAAAUAAACAUGGCAAUAUAAAAAUGUUAAGAAUUUACAAAGCUGUACAAAAUAACUUACAACAGAGGAUUGAGCAUCA
B4: chr13:29045409:29045410:-_ENSMUSG00000076431_ENSMUST00000067230|mus_hu|FALSE|FALSE (ssRNA)
RNA: GGGAGUUCUACAGUCCGACGAUCAUUUUGUUGCAAGGUAGGAAGCCAAAAAGCCUGCAUGCAACAGACUGGCAUGAAUAAAUGUAUGUUUCCCCCUCCCUUCUGCAAGAAGGGAGCUGGUAAUGGCAGGAGUUCCUCCAGUGCCAACAGAGGAUUGAGCAUCA
B5: chr13:107726893:107726894:-_ENSMUSG00000042590_ENSMUST00000080856|mus_mus|motif|central (ssRNA)
RNA: GGGAGUUCUACAGUCCGACGAUCCCUUUCCACUUGUCCACACGAAGCGGCGUUGGUUGCUUCCUCGUCCCCCACGCUCCGGGUCCACACGCUGCCGCCUACUGAUGCCGAAAACGGCUUCUAGGAACGCGCCAUGUUCCGCGUCAACAGAGGAUUGAGCAUCA
B6: chr6:142724167:142724168:+_ENSMUSG00000030282_ENSMUST00000032419|mus_mus|FALSE|FALSE (ssRNA)
RNA: GGGAGUUCUACAGUCCGACGAUCCCAGACUCAUUGCUUUACAAUAAAUAAAAUCCCAGCAUCAUUAACACCACACACACUAGUUUGACAGGGCACAAUACAGAGUGGAUUGUUUAUGAGGUCGGAGCAAGACUAGGUCAAUCCCAACAGAGGAUUGAGCAUCA
B7: chrX:71549400:71549401:+_ENSMUSG00000019087_ENSMUST00000019231|mus_hu|mus_mus_mus_hu_False|1_108 (ssRNA)
RNA: GGGAGUUCUACAGUCCGACGAUCGCAAGGAAGAGGAGGAAGCUCUUCAGUCCAGUGCGCUGCAGGGUGGGAAAGCAACAACACGGACACCGUCCCACCCUCAACCCCCCCACUGGCACAGGGUCACACAAUCUGGGAAGUGAUCAACAGAGGAUUGAGCAUCA
B8: 5019412_5019532_1253_3pUTR_ENSMUSG00000022536_ENSMUST00000115844|mouse|control|control (ssRNA)
RNA: GGGAGUUCUACAGUCCGACGAUCAGCAGCUGCUGCAGUCCUCAUACAAGCCCCUGUCUCCGGCUGCUAAGAUCACCAACAUCCCAUCAUUGGACAGUUGCUGAUUCCCUGAGACUGGUGCUUCCAGAAAGCGUCCCCCUCUGGCAACAGAGGAUUGAGCAUCA
B9: chr13:30086970:30086971:-_ENSG00000139514_ENST00000380752|hu_mus|motif|central (ssRNA)
RNA: GGGAGUUCUACAGUCCGACGAUCAGGCCCUGUGUAGGCUGGGGAAGUGUGCUACCACUAGGCUACACGCCUGUCCAGCCCCACGGACUCUUCCAUUCUCAAGAAUCUUCCAAAGCAGAGGAAAGACAGGGCCAUCAGUCUACCCAACAGAGGAUUGAGCAUCA
B10: chr17:60770872:60770873:+_ENSG00000011028_ENST00000303375|hu_hu|hu_hu_hu_mus_True|78_98 (ssRNA)
RNA: GGGAGUUCUACAGUCCGACGAUCUCUUUAAAAAAAAUUCCUUUUUUACAAACAAUAAUAAUGGCACUCGAGAAUCAAGAACUACAAUAGAGGGUCCGCUUUGAGUUUUUGUUCACAUCGUCCUGCACUGGGACACGGGGACUGCAACAGAGGAUUGAGCAUCA
B11: chr3:88228879:88228880:-_ENSMUSG00000050144_ENSMUST00000057935|mus_mus|motif|central (ssRNA)
RNA: GGGAGUUCUACAGUCCGACGAUCAUAUCCACUGCCUCCUCGACAGGUUGAACCUUAGGUACCUCUGAUCCUUCAAGACACCGGAGCACCGUGGUCGCUUUCCUUCUCAGACCCCAGCGCUUUAGCCGCGUCUGAGACUGGGACCAACAGAGGAUUGAGCAUCA
B12: chr3:44794862:44794863:-_ENSG00000163807_ENST00000296121|hu_mus|FALSE|FALSE (ssRNA)
RNA: GGGAGUUCUACAGUCCGACGAUCGUCCACAAUAUUCAUAUUUACUCAUUUUCAUCUUCACUGUCAAAAGAAAGGAGACUGCUAUUUUUUAUUUGUUUUUGUGAGUUCUUUCUAACUGAACUUUGCUUAUUUACAUCAUCUUCACAACAGAGGAUUGAGCAUCA
B13: chr10:112364898:112364899:-_ENSMUSG00000074748_ENSMUST00000099276|mus_mus|FALSE|FALSE (ssRNA)
RNA: GGGAGUUCUACAGUCCGACGAUCAUCGAAUUCAAACGGGAAUAUUAAUAUUUUUAGUAUUUAAGUCACAUACCUGACUUCUAUUUGUAUCAAAGAGGCCCAAUUGGAGGCUUAGAAAUCAGAGGAGCAGUCCACCGAAGCUGACAACAGAGGAUUGAGCAUCA
B14: 13423187_13423307_457_5pUTR_ENSMUSG00000031012_ENSMUST00000115438|mouse|control|control (ssRNA)
RNA: GGGAGUUCUACAGUCCGACGAUCGCCAUGGUCCGAAGGGGACAGCGGCCGCAGCGUGGAGGGUUCUGAAAACUGGGUUGGGGGCGCCCAAGAGCUCAGUGCCCGGCUCCGGGCUCGUGUCCUCCACUCAGGACCCGCAAGCCCCAACAGAGGAUUGAGCAUCA
B15: chr8:117878989:117878990:-_ENSG00000164754_ENST00000297338|hu_hu|hu_hu_hu_mus_True|18_38 (ssRNA)
RNA: GGGAGUUCUACAGUCCGACGAUCCCAGAGGCCCUCGUUUACUGAGGACAAAAUGUGCGUAGAACAUUUUUCUUAUUUGCUAUGAAAUAAGAAGAAAACCUUGCUCUGGCGGGGAGCUUGGGCGGGCGGGUGGCCCGGGGAGGGCAACAGAGGAUUGAGCAUCA
B16: chr14:58718896:58718897:+_ENSG00000100567_ENST00000216455|hu_hu|FALSE|FALSE (ssRNA)
RNA: GGGAGUUCUACAGUCCGACGAUCCCGAUCAACAUUAAAAAGUCUUUUGUUGGAACCUUCUUCAUAAAGUUUAGAAAGGACUAAUUUUUCUACCCCAAAGACAACACCAUCUUUGCAUCUGAUUCCAAUAGCUGUACUACUAUUCAACAGAGGAUUGAGCAUCA
B17: chr17:7482246:7482247:+_ENSG00000161960_ENST00000293831|hu_hu|FALSE|FALSE (ssRNA)
RNA: GGGAGUUCUACAGUCCGACGAUCAGUUUCCAAGUCAUUUUAUUCAGAAUUUUGUGUUUGUUUCCUGAAUCAAUAAAUACUAUACAAAACAAUGUAAAAAUGGCUACCAUUUUCUCUCCCCUGCUUCCCCCCACCUGGGGACAACAACAGAGGAUUGAGCAUCA
B18: chr22:19452774:19452775:-_ENSG00000070010_ENST00000399523|hu_hu|hu_hu_hu_mus_False|88_88 (ssRNA)
RNA: GGGAGUUCUACAGUCCGACGAUCCUUCUCAUUGUAGUUGAUAGCAAUCACAUCCCCAGUCGUCAGACAGGCGAAGUUUCUCAAUGCAUUUUCUAAUACCGCUUUAGGGUUGGUAAUAUCCAGGAAGUCUGGGCUCUGAGGCUGCAACAGAGGAUUGAGCAUCA
B19: chr8:145151508:145151509:+_ENSG00000179091_ENST00000318911|hu_mus|FALSE|FALSE (ssRNA)
RNA: GGGAGUUCUACAGUCCGACGAUCGCCUUCUCGCAAUGACACCCCAGUGGGGGGCUCACAGUAGCCAGUGAGCAGGGAAAAUACGUAGUCCUCACCACCAUGCCUAGCUCGAACGAUGUAGCUGAGGUCAGGGGGUAAAGCUCCCAACAGAGGAUUGAGCAUCA
B20: chr2:30816663:30816664:-_ENSMUSG00000026849_ENSMUST00000028200|mus_mus|FALSE|FALSE (ssRNA)
RNA: GGGAGUUCUACAGUCCGACGAUCUCUGAUGCACAUUUUCAGGUGCUUGUACUCCAGGGGCAGGAAGGGGACAAAAUAAUCUAUGAGGUUCCGGUCAAUGAGGCUGCUGUGCCAGAAGCCACUGUUCUUGUUAUUGAAGACCGACAACAGAGGAUUGAGCAUCA
B21: chr10:33214929:33214930:-_ENSG00000150093_ENST00000302278|hu_mus|motif|central (ssRNA)
RNA: GGGAGUUCUACAGUCCGACGAUCAACAAGUUCAUUGAAAAACUCUCCUCUGUCAGUAAGACUAAGCACAUUUUUGUAGCGGAAUGGGCUGGUGCAGUUUUGUUCACUUGUACAAGGAUUUCUUAGCUUUGCUGGGGUUGUGCUCAACAGAGGAUUGAGCAUCA
B22: 104489726_104491872_993_CDS_ENSMUSG00000027176_ENSMUST00000028599|mouse|control|control (ssRNA)
RNA: GGGAGUUCUACAGUCCGACGAUCAUACUGGGCAGCUUCAUACCAGAUAUCAGGGUGAUGGCCCAGCACAAGGAGGCACUGUUCAUAGGCAAACAUAACUCUUUUGGUUAUCAGGGUCUGGUCCUCUGUGCGAAGAGGGUUGCUCAACAGAGGAUUGAGCAUCA

Molecular target: T1, UNK ZnF1-3 (human, UniProt Q9C0B0 31-174)
T1 sequence: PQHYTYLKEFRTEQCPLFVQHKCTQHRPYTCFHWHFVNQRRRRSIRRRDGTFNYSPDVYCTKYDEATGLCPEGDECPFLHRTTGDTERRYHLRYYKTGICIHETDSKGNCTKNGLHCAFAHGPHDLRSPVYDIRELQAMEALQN
Experiment: nsRBNS (natural sequence RNA bind-n-seq); RBNS binding buffer (assumed for nsRBNS): 25 mM Tris pH 7.5, 150 mM KCl, 3 mM MgCl2, 0.01% Triton X-100, 500 ug/ml BSA, 20 U/ml SUPERase-In, 4 C; UNK is unkempt and MSI1 is Musashi-1; names of the RNAs are library labels; protein concentration not given here; high values mean tight binding

| Binder | binding signal [enrichment R] |
| --- | --- |
| B1 | 0.578 |
| B2 | 1.35 |
| B3 | 2.55 |
| B4 | 0.814 |
| B5 | 0.696 |
| B6 | 1.73 |
| B7 | 1.35 |
| B8 | 0.402 |
| B9 | 1.03 |
| B10 | 1.53 |
| B11 | 0.678 |
| B12 | 0.696 |
| B13 | 1.92 |
| B14 | 0.959 |
| B15 | 0.987 |
| B16 | 0.99 |
| B17 | 2.16 |
| B18 | 0.79 |
| B19 | 1.46 |
| B20 | 1.06 |
| B21 | 0.842 |
| B22 | 0.919 |
